Measurements: PubChem BioAssay (NCI)
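Test compounds were applied to cells in 96-well plates for 48 hours at 5 doses. Abbreviation: GI50, concentration required for 50% inhibition of growth. The concentration for full growth arrest is given as TGI.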

Test system: NCI-H322M lung
Assay: NCI tumour cell line growth inhibition, 48 h

SMILES	GI50 [µM]	TGI [µM]
Cc1cc(C(NC(=O)CCCCCNc2cccc3c2C(=O)N(C2CCC(=O)NC2=O)C3=O)c2cccnc2)c(O)c2ncccc12 (stereo unspecified)	0.0494	4.62
Cc1nn(-c2ccccc2)c2ncnc(N/N=C/c3ccccc3O)c12	0.319	> 67.3
COc1ccc([C@@H]2[C@@H](O)C(=O)N2c2cc(OC)c(OC)c(OC)c2)cc1	0.284	> 100
